In all, about 310,000 compounds went through this assay and about 2,200 (0.71%) showed an effect of 50% or more. Effects have a minus sign here. Some of the results follow.

For the test, the target named is human ether-à-go-go-related gene (hERG) potassium channel (human, UniProt Q12809). Nature of the test: primary screen, population patch clamp on CHO cells stably expressing hERG.
Sequence of human ether-à-go-go-related gene (hERG) potassium channel (Q12809 whole entry, looked up): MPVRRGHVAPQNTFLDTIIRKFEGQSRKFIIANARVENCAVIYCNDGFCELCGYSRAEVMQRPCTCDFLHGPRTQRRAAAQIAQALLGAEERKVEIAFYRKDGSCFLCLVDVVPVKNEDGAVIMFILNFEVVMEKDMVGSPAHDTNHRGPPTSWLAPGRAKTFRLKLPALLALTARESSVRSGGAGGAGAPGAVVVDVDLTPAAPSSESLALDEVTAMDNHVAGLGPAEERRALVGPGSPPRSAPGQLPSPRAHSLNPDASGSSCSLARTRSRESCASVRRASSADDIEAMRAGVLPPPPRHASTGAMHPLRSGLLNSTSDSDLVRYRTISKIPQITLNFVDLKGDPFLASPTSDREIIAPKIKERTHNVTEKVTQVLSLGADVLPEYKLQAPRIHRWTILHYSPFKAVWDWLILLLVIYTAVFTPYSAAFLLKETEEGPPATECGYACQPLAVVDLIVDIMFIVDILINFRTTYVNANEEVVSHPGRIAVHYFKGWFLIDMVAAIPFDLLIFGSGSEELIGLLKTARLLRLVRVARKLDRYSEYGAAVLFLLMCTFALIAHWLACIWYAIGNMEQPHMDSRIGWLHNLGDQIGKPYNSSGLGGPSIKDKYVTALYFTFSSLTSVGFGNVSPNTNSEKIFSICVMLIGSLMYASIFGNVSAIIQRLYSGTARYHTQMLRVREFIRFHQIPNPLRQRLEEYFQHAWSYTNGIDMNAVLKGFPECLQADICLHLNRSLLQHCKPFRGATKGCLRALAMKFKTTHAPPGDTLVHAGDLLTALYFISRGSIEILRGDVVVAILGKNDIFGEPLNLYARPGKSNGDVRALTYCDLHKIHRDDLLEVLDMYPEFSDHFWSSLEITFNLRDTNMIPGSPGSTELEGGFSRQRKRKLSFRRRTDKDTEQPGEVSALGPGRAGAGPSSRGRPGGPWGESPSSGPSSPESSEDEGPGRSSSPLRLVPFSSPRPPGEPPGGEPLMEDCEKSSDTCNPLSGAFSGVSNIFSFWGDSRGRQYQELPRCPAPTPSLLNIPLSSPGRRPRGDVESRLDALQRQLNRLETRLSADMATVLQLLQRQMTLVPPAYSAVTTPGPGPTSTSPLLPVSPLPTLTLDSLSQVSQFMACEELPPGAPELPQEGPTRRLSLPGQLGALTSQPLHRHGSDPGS
For the compound `CCn1c(SCC(=O)N2CC(=O)Nc3ccccc32)nnc1-c1ccoc1C`, the “hERG current change (%, negative = inhibition) at 1uM” value worked out at 18.4%.

Regarding `Cc1ccc(NC(=O)c2nnn(-c3cc(C)cc(C)c3)c2N)cc1`, the “hERG current change (%, negative = inhibition) at 1uM” value is 14.1%.

As for `CC(=O)c1cccc(N2C(=O)C3C4CCC(C4=C(C)C)C3C2=O)c1` (stereo not drawn), the “hERG current change (%, negative = inhibition) at 1uM” value was 22.7%.

With `O=C(c1ccco1)N1CCN(c2nc(C3CC3)nc3sc4c(c23)CCCC4)CC1`, the “hERG current change (%, negative = inhibition) at 1uM” value is given as 5.16%.

`CC1CCN(c2ccc(NC(=O)c3ccc([N+](=O)[O-])o3)cc2)CC1.Cl`: the “hERG current change (%, negative = inhibition) at 1uM” value is 1.39%.

As to `C=CCN(CC=C)C(=O)Nc1ccc2nc(C)sc2c1`, the “hERG current change (%, negative = inhibition) at 1uM” value was 10%.

On to `CC(=O)O.NCc1ccc(S(N)(=O)=O)cc1`, for which the “hERG current change (%, negative = inhibition) at 1uM” value is on record as 18.4%.

As to `Cc1ccc(O)c(C(=O)c2cnc3onc(-c4ccc(F)cc4)c3c2)c1`, the “hERG current change (%, negative = inhibition) at 1uM” value worked out at 1.82%.

As for `COC(=O)CN(C)C(=O)c1ccc(OC)c(OC2CCN(C(C)C)CC2)c1`, the “hERG current change (%, negative = inhibition) at 1uM” value stood at 12.2%.

For `O=C(NC(=S)Nc1ccc(N2CCOCC2)c(Cl)c1)c1cncc(Br)c1`, the “hERG current change (%, negative = inhibition) at 1uM” value was 8.18%.

`COc1ccc(CC(=O)N(Cc2ccccc2)c2ccc(C)cc2)cc1OC`: the “hERG current change (%, negative = inhibition) at 1uM” value was -1.64%.

As for `O=C(O)c1cc(NC(=O)c2ccc([N+](=O)[O-])cc2)cc(NC(=O)c2ccc([N+](=O)[O-])cc2)c1`, the “hERG current change (%, negative = inhibition) at 1uM” value came to 7.26%.

In the case of `O=C(N/N=C/c1cccs1)c1ccc2ncccc2c1`, the “hERG current change (%, negative = inhibition) at 1uM” value is 5.95%.

On to `O=C(Cn1nnc(-c2ccccc2)n1)N/N=C/c1cc([N+](=O)[O-])c(Cl)cc1Cl`, for which the “hERG current change (%, negative = inhibition) at 1uM” value came out at 11.8%.

Regarding `CCC1(c2ccccc2)NC(=S)N(c2ccc(C)c(C)c2)N1` (stereo not drawn), the “hERG current change (%, negative = inhibition) at 1uM” value came to 19.2%.

On to `CCN(CC)CCCNC(=O)c1cn(-c2cccc(OC)c2)c(=O)c2ccccc12`, for which the “hERG current change (%, negative = inhibition) at 1uM” value is listed as -17.2%.

With `Cc1[nH]c2ccc(C(=O)OC(C)C(=O)N(C)c3ccccc3)cc2c1C` (stereo not drawn), the “hERG current change (%, negative = inhibition) at 1uM” value is reported as 3.12%.

Consider `CCC(=O)N(Cc1cc2ccccc2[nH]c1=O)c1ccccc1OC`, for which the “hERG current change (%, negative = inhibition) at 1uM” value is 9.38%.

As to `O=C(/C=C/c1ccco1)Nc1cccc(S(=O)(=O)N2CCOCC2)c1`, the “hERG current change (%, negative = inhibition) at 1uM” value is given as -5.85%.

As to `O=C(Nc1ccccc1)c1c(O)[nH]c(=S)[nH]c1=O`, the “hERG current change (%, negative = inhibition) at 1uM” value stood at 14.2%.

For `Cc1c(O)ccc2c(CN3CCN(CCO)CC3)cc(=O)oc12`, the “hERG current change (%, negative = inhibition) at 1uM” value was determined as 9.31%.

Consider `CC(=O)Nc1nnc(CCS(=O)(=O)c2ccc(C)c(C)c2)s1`, for which the “hERG current change (%, negative = inhibition) at 1uM” value is 11.7%.

As to `CCOC(=O)c1cnc(SCC(=O)Nc2ccc(NC(C)=O)c(OC)c2)nc1N`, the “hERG current change (%, negative = inhibition) at 1uM” value is 15%.

Consider `CC(CNC(=O)COC(=O)c1cccs1)c1ccccc1` (stereo not drawn), for which the “hERG current change (%, negative = inhibition) at 1uM” value was found to be 11.2%.

These data come from article PMC4336329 (PLoS ONE, 2015).
